About 14,000 (4.5%) of roughly 310,000 compounds showed an effect of 50% or more. Effects have a minus sign here. The list shows a part of the results.
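Note: peak tail current of the secondary pulse compared with the same well before compound.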

The target in the experiment is human ether-à-go-go-related gene (hERG) potassium channel (human, UniProt Q12809). The experiment in a line: primary screen, population patch clamp on CHO cells stably expressing hERG.
human ether-à-go-go-related gene (hERG) potassium channel, sequence (Q12809 whole entry, looked up): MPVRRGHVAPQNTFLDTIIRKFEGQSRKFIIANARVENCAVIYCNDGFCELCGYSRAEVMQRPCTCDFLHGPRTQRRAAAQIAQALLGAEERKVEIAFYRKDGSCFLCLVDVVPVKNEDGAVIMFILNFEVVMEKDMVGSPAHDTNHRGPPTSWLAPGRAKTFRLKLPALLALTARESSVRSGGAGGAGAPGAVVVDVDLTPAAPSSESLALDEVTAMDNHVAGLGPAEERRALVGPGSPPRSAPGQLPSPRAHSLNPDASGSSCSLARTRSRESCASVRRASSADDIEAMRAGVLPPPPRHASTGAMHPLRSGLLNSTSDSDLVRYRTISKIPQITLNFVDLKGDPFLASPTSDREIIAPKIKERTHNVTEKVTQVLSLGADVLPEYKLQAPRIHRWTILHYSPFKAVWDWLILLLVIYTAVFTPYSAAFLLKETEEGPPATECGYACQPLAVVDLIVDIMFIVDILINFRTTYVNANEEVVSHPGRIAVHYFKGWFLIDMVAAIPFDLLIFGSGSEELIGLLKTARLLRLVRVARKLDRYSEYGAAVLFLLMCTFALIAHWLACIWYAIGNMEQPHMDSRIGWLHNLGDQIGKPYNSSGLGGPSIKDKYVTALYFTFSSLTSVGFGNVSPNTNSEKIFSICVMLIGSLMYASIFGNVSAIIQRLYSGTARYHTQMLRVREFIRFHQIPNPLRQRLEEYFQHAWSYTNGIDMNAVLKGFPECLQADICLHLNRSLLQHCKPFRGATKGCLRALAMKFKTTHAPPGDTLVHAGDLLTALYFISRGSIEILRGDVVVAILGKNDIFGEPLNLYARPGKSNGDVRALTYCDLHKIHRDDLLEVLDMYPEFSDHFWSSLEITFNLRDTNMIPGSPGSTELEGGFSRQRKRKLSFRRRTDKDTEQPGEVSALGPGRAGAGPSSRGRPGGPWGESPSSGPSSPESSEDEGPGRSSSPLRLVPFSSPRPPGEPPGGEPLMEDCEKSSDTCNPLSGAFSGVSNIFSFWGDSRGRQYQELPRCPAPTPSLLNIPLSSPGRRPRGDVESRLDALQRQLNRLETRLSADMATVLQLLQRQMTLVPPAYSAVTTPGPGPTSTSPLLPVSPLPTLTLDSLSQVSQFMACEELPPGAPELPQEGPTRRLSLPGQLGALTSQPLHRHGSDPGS
Regarding `CC(=O)Nc1ccc2c(c1)N(S(=O)(=O)c1cccs1)CCC2`, the “hERG current change (%, negative = inhibition) at 10uM” value is reported as -3.79%.
On to `Cc1ccc(CSC2=Nc3ccccc3C3=NC(=O)CN23)cc1`, for which the “hERG current change (%, negative = inhibition) at 10uM” value was determined as 4.54%.
As for `Cc1ccc2[nH]c(C(=O)N3CCN(c4cccc(Cl)c4)CC3)cc2c1`, the “hERG current change (%, negative = inhibition) at 10uM” value is reported as 9.35%.
The value for `Cc1ccc2c(CC(=O)Nc3ccc(N4CCN(C)CC4)cc3C)coc2c1` was -72.8%; that for `S=c1[nH]nc(-c2cc(-c3ccco3)[nH]n2)n1-c1ccccc1Cl` was 12.6%.
In the case of `CSc1ccccc1NC(=O)CSCc1ccc(C)cc1`, the “hERG current change (%, negative = inhibition) at 10uM” value is given as -7.79%.
As for `C=CCn1c(SCC(=O)NC(=O)NC2CCCC2)nnc1C1CCCCC1`, the “hERG current change (%, negative = inhibition) at 10uM” value came to 3.7%.
Turning to `Clc1ccc(-n2ncc3c(NCc4ccc5c(c4)OCO5)ncnc32)cc1`, the “hERG current change (%, negative = inhibition) at 10uM” value was 12.7%.
The figure for `CC[N+](C)(C)CC/C=C1/c2ccccc2Sc2ccc(Cl)cc21.[Br-]` is -25.3%; for `CC(=O)N1c2ccccc2C(C)CC12CCCCC2` (stereo not shown) it is -1.59%; for `C=C(C)Cc1c(C)c(C#N)c2[nH]c3ccccc3n2c1=O` it is 23.2%.
On to `COc1ccc([N+](=O)[O-])cc1NC(=O)CSc1nncn1-c1ccccc1`, for which the “hERG current change (%, negative = inhibition) at 10uM” value is on record as -14%.
Take `Cc1ccc(/C(O)=C2/C(=O)C(=O)N(CCN3CCOCC3)C2c2cccnc2)cc1` (stereo not shown): the “hERG current change (%, negative = inhibition) at 10uM” value is recorded as 3.93%.
Turning to `C=CCOc1ccc(CN(C)Cc2nc3cc(C(F)(F)F)ccc3c(=O)[nH]2)cc1`, the “hERG current change (%, negative = inhibition) at 10uM” value is listed as -14.2%.
The value for `Nc1cc(=O)nc(SCC(=O)N2CCN(c3ccccc3)CC2)n1-c1ccc(F)cc1` was 16.5%; that for `Cc1ccc(OCC(=O)N/N=C\c2ccc(-c3cccc(C(=O)O)c3)o2)c(C)c1` was 31.5%.
For the compound `O=C(Nc1ccc(S(=O)(=O)N2CCCC2)cc1)C1CC(=O)N(c2ccc(F)cc2)C1` (stereo not shown), the “hERG current change (%, negative = inhibition) at 10uM” value is given as 8%.
Consider `CCOC(=O)c1[nH]c2ccccc2c1N=CN(C)C`, for which the “hERG current change (%, negative = inhibition) at 10uM” value is -28.9%.
The figure for `COC(=O)c1ccccc1NC(=O)Cn1cnc2c(cnn2-c2ccc(C)c(C)c2)c1=O` is 8.83%; for `COc1ccc(CN(C)C(=O)c2ccc(NS(=O)(=O)c3ccc(F)cc3)cc2)c(OC)c1OC` it is -55.6%.
Consider `COc1ccc(N2CCN(C(=O)Cn3cnc4c(cnn4-c4ccc(C)cc4)c3=O)CC2)cc1`, for which the “hERG current change (%, negative = inhibition) at 10uM” value was -9.24%.
As for `CC1CCc2c(sc3ncn(CCO)c(=O)c23)C1` (stereo not shown), the “hERG current change (%, negative = inhibition) at 10uM” value stood at 14.8%.
With `O=C(CSc1nnc(-c2cccnc2)s1)Nc1ccc(C(=O)O)cc1`, the “hERG current change (%, negative = inhibition) at 10uM” value stood at 19%.
In the case of `CC1=C(C(N)=O)C(c2ccccc2F)NC(=O)N1` (stereo not shown), the “hERG current change (%, negative = inhibition) at 10uM” value is on record as 17%.
On to `O=C(COC(=O)c1cc(Cl)ccc1[N+](=O)[O-])Nc1cccc2ccccc12`, for which the “hERG current change (%, negative = inhibition) at 10uM” value is recorded as -1.97%.
`COc1ccc(-c2csc(C)n2)cc1Br`: the “hERG current change (%, negative = inhibition) at 10uM” value is given as 17.4%.
As to `CCOc1ccc(N2C(=O)CC(Cc3ccc(Br)cc3)C2=O)cc1` (stereo not shown), the “hERG current change (%, negative = inhibition) at 10uM” value is 5.77%.
With `COc1ccc(NC(=O)c2cc(C)cc(C)c2)cc1[N+](=O)[O-]`, the “hERG current change (%, negative = inhibition) at 10uM” value is on record as -2.42%.
For the compound `COc1ccc(C(CNC(=O)c2cccc(S(=O)(=O)Nc3ccc(C)cc3)c2)N2CCCCC2)cc1` (stereo not shown), the “hERG current change (%, negative = inhibition) at 10uM” value is listed as -30.7%.
The figure for `COc1ccc(C2CC(c3ccc(OC)c(OC)c3)=NN2C(=O)c2ccccc2)cc1` (stereo not shown) is 9.33%; for `Cc1ccc(NC(=O)CSc2nsc(SCC(=O)Nc3ccc(C)cc3C)c2C#N)c(C)c1` it is 23.2%.
With `O=C(NNS(=O)(=O)c1ccc(Br)cc1)C1CCCCC1`, the “hERG current change (%, negative = inhibition) at 10uM” value was found to be 10.3%.
As for `CCOc1ccc(Nc2ccc([N+](=O)[O-])c3nonc23)cc1`, the “hERG current change (%, negative = inhibition) at 10uM” value was -53.9%.
As to `COc1nc(C)ccc1-c1noc(-c2cccs2)n1`, the “hERG current change (%, negative = inhibition) at 10uM” value is reported as 8.17%.
`Cc1ccc(C)c(S(=O)(=O)N2CCN(C(=O)Cc3c(F)cccc3Cl)CC2)c1`: the “hERG current change (%, negative = inhibition) at 10uM” value is -18.9%.
Regarding `O=C(/C=C/c1ccc([N+](=O)[O-])cc1)c1ccco1`, the “hERG current change (%, negative = inhibition) at 10uM” value is -41.5%.
The value for `CCOC(=O)C(C)Oc1ccccc1C1NC(=O)NC(C)=C1C(=O)Nc1ccc(C)c(C)c1` (stereo not shown) was 0.583%; that for `O=C(NNC(=O)c1cc2ccccc2oc1=O)c1ccccc1[N+](=O)[O-]` was 23.2%.
With `COc1ccc(NC(=O)CCc2nc3ccccc3s2)c(OC)c1`, the “hERG current change (%, negative = inhibition) at 10uM” value was -0.68%.
Regarding `Cc1ccc(NC(=O)COc2ccccc2C(N)=O)cc1S(=O)(=O)N1CCCCCC1`, the “hERG current change (%, negative = inhibition) at 10uM” value is recorded as -37.8%.
On to `CC1CC(C)CN(C(=O)c2ccc3c(c2NCCO)C(=O)c2ccccc2C3=O)C1` (stereo not shown), for which the “hERG current change (%, negative = inhibition) at 10uM” value was -13%.
On to `O=C1C2C3C=CC(CC3)C2C(=O)N1c1ccccc1[N+](=O)[O-]` (stereo not shown), for which the “hERG current change (%, negative = inhibition) at 10uM” value turned out to be 12.8%.
For `O=C(CC(=O)Nc1cc(Cl)ccc1Cl)Nc1cc(Cl)ccc1Cl`, the “hERG current change (%, negative = inhibition) at 10uM” value was 25.4%.
Consider `Cc1cc(F)ccc1NCc1cc2c(cc1[N+](=O)[O-])OCO2.O=C(O)C(=O)O`, for which the “hERG current change (%, negative = inhibition) at 10uM” value is on record as 7.77%.
The figure for `CNc1nc(N)c(C(=O)C23CC4CC(CC(C4)C2)C3)s1` is 7.78%; for `Cc1ccc(-n2nc(C)cc2NC(=O)c2ccc(C)s2)cc1` it is 13.9%; for `CCOC(=O)c1c(NC(=O)C2C3C=CC(C3)C2C(=O)O)sc2c1CC(C)(C)OC2` (stereo not shown) it is 2.84%.
With `CCCCc1ccc(NC(=O)C2CCCC2)cc1`, the “hERG current change (%, negative = inhibition) at 10uM” value was 4.28%.
Take `COC(=O)c1ccc(Cl)c(NC(=O)CN(c2ccccc2)S(=O)(=O)c2ccc(OC)cc2)c1`: the “hERG current change (%, negative = inhibition) at 10uM” value is given as -11.5%.
Regarding `Cc1ccc2cc(/C=N/NC(=O)[C@H]3C[C@@H]3c3ccccc3)c(Cl)nc2c1`, the “hERG current change (%, negative = inhibition) at 10uM” value amounted to 14.1%.
As for `Cc1ccc(-c2nnn(CC(=O)O)n2)cc1`, the “hERG current change (%, negative = inhibition) at 10uM” value is recorded as -1.55%.
The figure for `COc1cc(NC(=O)c2n[nH]c(=O)c3ccccc23)cc(OC)c1` is 9%; for `CCC(=O)C(CCN1CCOCC1)(c1ccccc1)c1ccccc1` it is -16.5%.
As to `Cc1ccc(NC(=O)C(C)OC(=O)COc2cccc(C(F)(F)F)c2)cc1` (stereo not shown), the “hERG current change (%, negative = inhibition) at 10uM” value worked out at 10.4%.
The figure for `CCOc1ccc(C(=O)CCCC(=O)c2ccc(OCC)cc2)cc1` is 13.2%.
The figure for `CCCn1cnc2scc(-c3ccc(C)cc3)c2c1=O` is -21.9%.
For the compound `CCCNC(=O)Nc1cc(C)on1`, the “hERG current change (%, negative = inhibition) at 10uM” value came out at 10.9%.
Regarding `CCOC(=O)c1cnc(-n2[nH]c(C)c(Cc3ccccc3)c2=O)[nH]c1=O`, the “hERG current change (%, negative = inhibition) at 10uM” value was determined as 2.11%.
Consider `CC(C)N(Cc1ccccc1)C(=O)COc1ccccc1`, for which the “hERG current change (%, negative = inhibition) at 10uM” value turned out to be 6.09%.
With `C=CCSc1nc2c(c(C3CC=CCC3)c1C#N)CCC2` (stereo not shown), the “hERG current change (%, negative = inhibition) at 10uM” value is -8.57%.
For the compound `Cc1csc(NC(=O)C2CCN(S(=O)(=O)c3cccs3)CC2)n1`, the “hERG current change (%, negative = inhibition) at 10uM” value is on record as -27.3%.
On to `COc1ccc(N(CC(=O)N2CCN(c3ccccc3F)CC2)S(=O)(=O)c2c(C)noc2C)cc1`, for which the “hERG current change (%, negative = inhibition) at 10uM” value was determined as 16%.
The figure for `COc1ccccc1OCCNC(=O)C(=O)c1c[nH]c2ccccc12` is 5.02%; for `CCC(=O)Nc1nnc(Cc2ccccc2)s1` it is 2.13%; for `COc1ccccc1-c1cc(-c2ccccc2)nc(SC(C(N)=O)c2ccccc2)c1C#N` (stereo not shown) it is 15.3%.
The figure for `CCCC(=O)Nc1ccc(C(=O)O)cc1NC(=O)CCC` is 8.09%.
Consider `Cc1nnc(Sc2c(-c3ccccc3)c3ccc(Cl)cc3[nH]c2=O)s1`, for which the “hERG current change (%, negative = inhibition) at 10uM” value is -21.4%.
`COC(=O)C(CC(=O)c1ccc(C)cc1)n1cccn1` (stereo not shown): the “hERG current change (%, negative = inhibition) at 10uM” value turned out to be 12.9%.
With `C=CCN1C(=O)NC2(O)C(=O)c3ccccc3C12O` (stereo not shown), the “hERG current change (%, negative = inhibition) at 10uM” value is given as 7.55%.
Turning to `Cc1ccc(-n2c(-c3ccco3)nc3nc4ccccc4nc32)cc1F`, the “hERG current change (%, negative = inhibition) at 10uM” value is on record as 4.17%.
On to `O=c1[nH]c(CSc2ncnc3sccc23)nc2ccccc12`, for which the “hERG current change (%, negative = inhibition) at 10uM” value is 1.46%.
The value for `COc1cn(-c2ccccc2)nc1C(=O)NCc1ccccc1` was -24.9%.
For the compound `COc1ccc(-c2csc(NC(=O)CCCc3cccs3)n2)cc1`, the “hERG current change (%, negative = inhibition) at 10uM” value came to 14.9%.
With `C#CCOc1ccccc1CNc1ccccc1`, the “hERG current change (%, negative = inhibition) at 10uM” value was determined as 9.01%.
The figure for `Cc1ccc(C)c(N2CCN(C(=O)c3cc4sccc4n3C)CC2)c1` is 4.68%.
The figure for `COc1ccc2nc(C)cc(SCC(=O)Nc3c(C)cccc3C)c2c1` is -2.19%.
As for `Cc1ccc2c(c1)N(CC(=O)N1CCCCC1)C(=O)CO2`, the “hERG current change (%, negative = inhibition) at 10uM” value is on record as -4.93%.
For `CC(C)c1cccc(C(C)C)c1NC(=O)COc1nncc2ccccc12`, the “hERG current change (%, negative = inhibition) at 10uM” value is listed as 21%.
As for `Fc1ccc(C(c2nnnn2Cc2cccs2)N2CCN(c3ccccc3)CC2)cc1` (stereo not shown), the “hERG current change (%, negative = inhibition) at 10uM” value is reported as -21.3%.
Regarding `Cc1ccc(CNC(=O)c2cc(-c3ccccc3)nn2CC2CC(c3cccc([N+](=O)[O-])c3)=NO2)cc1` (stereo not shown), the “hERG current change (%, negative = inhibition) at 10uM” value was -8.09%.
`CCC(C)[C@H]1COCCS(=O)(=O)N1Cc1ccc(C)cc1` (stereo partly shown): the “hERG current change (%, negative = inhibition) at 10uM” value is -13%.
Turning to `Cc1cc(=O)[nH]c(SCC(=O)OCc2ccccc2)c1C#N`, the “hERG current change (%, negative = inhibition) at 10uM” value came to 14%.
The value for `CCN1CCN(Cc2c3ccccc3cc3ccccc23)CC1` was 9.14%; that for `Cc1cccc(-n2ccc(=O)c(C(=O)Nc3ccc(S(=O)(=O)N4CCOCC4)cc3)n2)c1` was -2.52%.
The figure for `COC(=O)c1c[nH]n2c(=O)c(C(C)C)c(C)nc12` is 16.9%; for `COCc1[nH][nH]c(=O)c1C=Nc1ccc(OC(F)(F)F)cc1` it is -46.4%.
Regarding `CCOC(=O)c1ccccc1NC(=O)c1ccc2c(SCC(=O)O)c3c(nc2c1)CCCC3`, the “hERG current change (%, negative = inhibition) at 10uM” value was determined as 5.98%.
Regarding `CC(C)COc1ncnc2c1sc1nc3c(cc12)COC(C)(C)C3`, the “hERG current change (%, negative = inhibition) at 10uM” value is on record as -4.22%.
